Source: PubChem BioAssay AID1461 (National Center for Advancing Translational Sciences (NCATS), 2008)
The campaign covered roughly 220,000 compounds. About 2,300 (1%) were called active. The inconclusive results got no clear call from the source; some entries with a clear call stand among them for comparison. Calls follow the shape of the dose curve; as a rule, active = well fitted inhibition curve with a large enough effect; inconclusive = small, poorly fitted or top-dose-only effect, or effect the other way; inactive = no such curve, though single readings can be large or run the other way. No potency is given beside an inconclusive call; the fits are too rough.

Molecular target: Neuropeptide S receptor (Homo sapiens) (UniProt Q6W5P4)
Chain of UniProt Q6W5P4 (Q6W5P4 whole entry, looked up): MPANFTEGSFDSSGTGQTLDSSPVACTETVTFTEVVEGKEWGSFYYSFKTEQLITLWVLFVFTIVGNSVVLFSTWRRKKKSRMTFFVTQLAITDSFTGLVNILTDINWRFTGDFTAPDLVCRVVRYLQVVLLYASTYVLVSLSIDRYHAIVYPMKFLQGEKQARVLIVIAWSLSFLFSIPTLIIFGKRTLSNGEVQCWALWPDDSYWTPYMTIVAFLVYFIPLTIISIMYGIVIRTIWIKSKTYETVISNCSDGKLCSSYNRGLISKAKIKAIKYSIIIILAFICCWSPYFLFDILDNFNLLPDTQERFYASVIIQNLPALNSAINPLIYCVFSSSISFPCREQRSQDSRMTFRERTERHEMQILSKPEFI
Assay: qHTS Assay for Antagonists of the Neuropeptide S Receptor: cAMP Signal Transduction; also: nearly all actives have a fitted effect of over 50% in size
Details: CHO-NPSR cells, cAMP TR-FRET, antagonist mode; series mostly up to 38.3 µM
From the text: NIH Chemical Genomics Center [NCGC] NIH Molecular Libraries Probe Production centers Network [MLPCN] MLPCN Grant: X01-DA026210-01 Assay Submitter (PI): Heilig, Markus Alexander NCGC Assay Overview: Neuropeptide S receptor (NPSR), previously known as GPR154, is a recently de-orphanized G protein coupled receptor. Its endogenous ligand is the 20 amino acids peptide Neuropeptide S (NPS). […] NPS and its receptor are found in various tissues. Specifically they are highly expressed in brain areas that have been implicated in modulation of arousal, stress and anxiety. Central administration of NPS in mice produces an unusual profile of activity by inducing wakefulness and arousal, while at the same time suppressing anxiety. Therefore, NPSR may represent a novel drug target for the treatment of sleep and anxiety disorders. To identify NPSR antagonists, we developed a cell-based cAMP assay. NPS can stimulate the production of cAMP in Chinese hamster ovary cells stably expressing NPS receptor. This change in intracellular cAMP level can be detected by a homogeneous LANCE cAMP assay based on the TR-FRET (time resolved fluorescence resonance energy transfer) between a europium-labeled cAMP tracer complex and a cAMP-specific antibody labeled with Alexa Fluor 647. The europium-labeled cAMP tracer complex is formed by the tight interaction between Biotin-cAMP (b-cAMP) and streptavidin labeled with Europium-W8044 chelate (Eu-SA). Light pulse at 320 nm excites the europium of the cAMP tracer and the energy emitted is transferred to the Alexa molecule bound to the cAMP antibody, generating a TR-FRET signal at 665 nm. Residual energy from the europium will produce a light at 620 nm. The native unlabeled cAMP from cell lysates competes with the europium-cAMP tracer for antibody binding and reversely reduces the emission signal of Alexa by interrupting FRET between the two labeled molecules. Both emission signals from the FRET donor (620 nm) and the acceptor (665 nm) can be detected by a plate reader in the TRF mode. Expression of result in fluorescence ratio (665 nm/620 nm) helps to normalize differences due to cell density and reagent dispensing. This assay was successfully optimized to a 1536-well plate format.
NCGC Assay Protocol Summary: A Chinese hamster ovary (CHO) cell line stably expressing the NPS receptor (CHO-NPSR) was obtained from Dr. Heilig lab at NIAAA and maintained in F-12 Kaighn's media (Invitrogen, Carlsbad, CA, 21127) supplemented with 10 % FBS, 100 units/ml penicillin, 100 ug/ml streptomycin and 250 ug/ml geneticin at 37C, 5% CO2 in a humidified atmosphere. Before the assay, aliquots of cells were frozen and stored at -135C. The assay was performed in 1536-well format. Data are reported for both the ratio of the two emission wavelengths, and also for the component 'donor' channel, Em2=620. Data were normalized to the controls for basal activity (DMSO only) and 100% inhibition (No NPS control). IC50 values were determined from concentration-response data modeled with the standard Hill equation. NPS 1536-well assay protocol: (1) Fresh or frozen CHO-NPSR cells were suspended in F-12 Kaighn's media supplemented with 10 % FBS, 100 units/ml penicillin and 100 ug/ml streptomycin. Cells were plated at 4 ul/well (1200 cells) to white, tissue culture treated 1536-well plates, and then cultured at 37C, 5 % CO2 for 16 to 30 hours. (2) Add 23 nl/well of compound in DMSO solution. The final titration for each compound was between 0.6 nM and 46 uM. (3) Add 1 ul of stimulation reagent (1X HBSS buffer, 5 mM HEPES, 0.1% BSA, 500 uM RO-201724 (Sigma-Aldrich, B8279), 1.5% Alexa 647-labeled anti-cAMP antibody (from Perkin Elmer), 100 nM NPS) (4) Incubation at 37C, 5 % CO2 for 60 min. (5) Add 1 ul/well detection reagent. Detection reagent was prepared by adding biotin labeled cAMP (4%), streptavidin labeled with Europium-W8044 chelate (1.33%) and TritonX-100 (1%) to detection buffer. […]
Potency is read from the fitted curve at half-maximal effect; tags tell the direction and shape of the fitted curve.

Compound	Potency
CCN(C(=O)CSc1ncn[nH]1)c1cccc2ccccc12	inconclusive [inhibitor, single point]
COc1ccc(-n2nnnc2-c2cccc(OC)c2)cc1	inconclusive [activator, single point]
CCn1c(SCC(=O)c2ccc3c(c2)Cc2ccccc2-3)nnc1-c1ccc(N)cc1	inactive
O=C(Oc1cc(Cl)ccc1Cl)c1ccc(N2CCOCC2)c([N+](=O)[O-])c1	inactive
O=C(Cc1cccs1)Nc1nc(-c2ccc(F)cc2F)cs1	inconclusive [inhibitor, single point]
CCc1ccccc1N1CCN(S(=O)(=O)c2ccc(F)c(C)c2)CC1	inconclusive [inhibitor, partial curve, poor fit]
Cc1cccc(C)c1NCc1n[nH]c(=S)n1-c1ccccc1	inactive
COC(=O)c1c(NC(=O)Cc2cccs2)sc2c1CCCC2	inconclusive [inhibitor, partial curve, poor fit]
O=C(C1=C[C@H](c2coc3ccccc3c2=O)C[C@H](OCCCCO)O1)N1CCN(Cc2ccc3c(c2)OCO3)CC1	inconclusive [activator, partial curve]
C=CCNC(=S)N/N=C/c1ccc(C)s1	inconclusive [inhibitor, single point]
O=C1C2C3C=CC(C3=C3CCCCC3)C2C(=O)N1Cc1ccccc1 (centres undefined)	inconclusive [inhibitor, single point]
Cc1nn2c(NCCCn3ccnc3)cc(C(C)C)nc2c1-c1ccccc1	inconclusive [activator, partial curve]
CC(C)OC(=O)c1cc(NC(=S)Nc2ccc([N+](=O)[O-])cc2)cc(C(=O)OC(C)C)c1	inconclusive [inhibitor, single point]
N#CCSc1nc2c(c(=O)n1Cc1ccccc1)C1(CCCC1)Cc1ccccc1-2	inconclusive [inhibitor, single point]
O=[N+]([O-])c1ccc2c(c1N1CCCCC1)=NC1(CCCCC1)[N+]=2[O-]	inconclusive [inhibitor, single point]
CCN(C(=O)c1cnc(N2CCN(c3ncccn3)CC2)c2ccccc12)c1cccc(Cl)c1	inconclusive [inhibitor, single point]
CCOc1ccccc1NC(=O)CCSc1nc2n[nH]c(C)c2c(=N)n1-c1ccccc1Cl	inconclusive [activator, single point]
Cc1onc(-c2ccccc2Cl)c1C(=O)OCC(=O)Nc1cccc(S(=O)(=O)N2CCOCC2)c1	inactive
CCOC(=O)c1[nH]c(COC(=O)CCCOc2ccccc2)c(C(=O)OCC)c1C	inconclusive [inhibitor, partial curve]
O=C(Nc1cccc(Cl)c1)N1CCN2C(=O)c3ccccc3C12c1ccccc1 (centres undefined)	inconclusive [inhibitor, partial curve]
O=C(CSc1ncnc2c1oc1ccccc12)NCc1ccc(F)cc1	inconclusive [inhibitor, partial curve, poor fit]
COc1ccc(-c2cc(-c3ccccc3)c(C#N)c(=S)[nH]2)cc1	active: 12.6 µM
CCC1CCC(c2nnc(-c3ccc([N+](=O)[O-])cc3)o2)CC1 (centres undefined)	inactive

Compound	Potency
CCOc1ccc(S(=O)(=O)N/N=C2/CC(c3ccccc3)Oc3ccccc32)cc1 (centres undefined)	inconclusive [inhibitor, single point]
C[C@H](NC(=O)c1nc[nH]c1C(=O)NC(c1ccccc1)c1ccccc1)C(=O)OC(C)(C)C	inconclusive [activator, single point]
CCCCCC[n+]1c(-c2ccccc2)csc1Nc1ccccc1	inactive
Nc1nc(Cl)cc(N2CCC(c3cc(-c4ccc(Cl)cc4)n[nH]3)CC2)n1	active: 10 µM
CS(=O)(=O)Nc1ccccc1C(=O)Nc1cccc(Cl)c1	inactive
CCOC(=O)CS(=O)(=O)c1nc(-c2ccccc2)cc(C(F)(F)F)n1	active: 10 µM
CCn1ccnc1CN(C)Cc1cn(-c2cccc(C)c2)nc1-c1cccc(F)c1	inconclusive [activator, partial curve]
CC1CC(C)CN(C(=S)SCc2nc(N)nc(Nc3ccccc3)n2)C1 (centres undefined)	inconclusive [inhibitor, single point]
O=C(C1=C[C@@H](c2ccccc2)C[C@@H](OCc2ccc(CO)cc2)O1)N1CCN(Cc2ccc3c(c2)OCO3)CC1	inconclusive [activator, partial curve]
CC(C)c1ccc(NS(=O)(=O)c2ccc3[nH]cc(C(=O)N4CCC(C(N)=O)CC4)c(=O)c3c2)cc1	inactive
O=C(N/N=C/c1cccs1)c1ccc(NC(=O)c2ccccc2Cl)cc1	inconclusive [inhibitor, single point]
C=CCOc1ccc(Br)cc1/C=N/O	inactive
C=CCOC(=O)C1=C[C@H](C2CC2)[C@@H](CCCO)[C@H](OCC)O1	inactive
O=C(Nc1nc2c(Cl)cccc2s1)c1ccc(Br)o1	inconclusive [inhibitor, single point]
Cc1ccc2cc(C#N)c(SCC(=O)NCC3CCCO3)nc2c1 (centres undefined)	inconclusive [inhibitor, single point]
CCN(CC)c1ccc(NC(=O)c2cccnc2)c(C)c1	inconclusive [inhibitor, single point]
Cc1nn(Cc2c(F)c(F)c(F)c(F)c2F)c(C)c1NC(=O)c1ccc(COc2ccc(Cl)cc2Cl)o1	inconclusive [inhibitor, single point]
CCOc1cc(S(=O)(=O)N2CCN(c3ccc(F)cc3)CC2)c(OCC)cc1-n1cnnn1	inconclusive [inhibitor, single point]
COc1cccc(/C=N/NC(=O)c2c(-c3ccccc3)noc2C)c1O	inactive
COc1ccccc1N1CCN(Cc2ccc(O)c3ncccc23)CC1	active: 3.98 µM
Cc1ccnc(NC(=O)CCC(=O)N(CC(=O)NCCc2ccccc2)Cc2ccco2)c1	inactive
Cc1ccc(OCc2nnc(SCC(=O)c3ccccc3)n2Cc2ccco2)cc1	inconclusive [inhibitor, partial curve, poor fit]
Cc1cc2n(n1)C(c1c[nH]c3ccccc13)Nc1ccccc1-2 (centres undefined)	inactive

Compound	Potency
CCOC(=O)c1c(NC(=O)c2ccn(CC)n2)sc2c1CCCC2	inconclusive [inhibitor, partial curve, poor fit]
O=C(CSc1cccc2cccc(Cl)c12)OCC(=O)N1CCN(C(=O)c2ccco2)CC1	inactive
CSCCC(NS(=O)(=O)c1ccc(Cl)cc1)C(=O)OCC(=O)NC12CC3CC(CC(C3)C1)C2 (centres undefined)	inconclusive [inhibitor, single point]
CCOC(=O)N1CCC(N2Cc3cccc(C(=O)Nc4ccc(F)cc4)c3C2=O)CC1	inconclusive [inhibitor, single point]
CCOC(=O)C1CCN(C(=O)CSc2cc(=O)n(CC)c3ccccc23)CC1	inconclusive [inhibitor, partial curve]
CCCCn1c(SCc2ncc(-c3ccccc3)o2)nc2cc(S(N)(=O)=O)ccc21	inconclusive [inhibitor, partial curve]
CC(=O)Nc1cc(C(F)(F)F)ccc1N1CCOCC1	inactive
CCc1cc2c(=O)c(-n3cnc4ccccc43)coc2cc1O	inconclusive [inhibitor, partial curve]
CCOc1ccc(C2=Nn3c(nnc3-c3ccccc3OC)SC2)cc1	inconclusive [activator, full curve]
O=C(C1CC1)N1CCc2sccc2C1c1ccc(Cl)cc1 (centres undefined)	inconclusive [activator, partial curve]
COC(=O)c1ccc(CSc2nc3ccccc3s2)o1	inactive
COc1ccccc1N=Nc1nc(-c2ccccc2)c(-c2ccccc2)[nH]1	active: 12.6 µM
Cc1ccc2c(CSc3nc4nc(C)cc(C)n4n3)cc(=O)oc2c1	active: 10 µM
CC(C)Oc1ccccc1C1CC(=O)Nc2cc3c(cc21)OCO3 (centres undefined)	inconclusive [activator, single point]
CCCCCCc1ccc(-c2ncc(N)cn2)cc1	inactive
COC(=O)CSc1nc2ccc(NC(=O)c3ccccc3C(=O)N3CCOCC3)cc2s1	inconclusive [inhibitor, single point]
CCOC(=O)c1nc(Nc2ccc(Nc3ccccc3)cc2)c2ccccc2n1	inconclusive [inhibitor, single point]
COc1cc(-c2nnc3sc(C4CCCCC4)nn23)cc(OC)c1OC	inconclusive [inhibitor, single point]
O=C(Cn1nnc(-c2ccccc2NC(=O)c2ccco2)n1)NC1CCCCC1	inconclusive [activator, single point]
Cc1ccc(NC(=O)c2cc(N3C(=O)C=CC3=O)ccc2N2CCOCC2)cc1Cl	inconclusive [inhibitor, single point]
Cn1cc(/C=N/NC(=O)COc2ccccc2[N+](=O)[O-])c2ccccc21	inactive
O=C(O)CSc1nnnn1C1CCCCC1	inactive
CCCCc1c(C)c(C#N)c2nc3ccccc3n2c1Nc1c(C)n(C)n(-c2ccccc2)c1=O	inconclusive [inhibitor, partial curve]
